# Laboratory results published in the supplement of paper PMC4604168 (melanoma cell lines).
# This is one part of the list. Many values rest on one well or one pass, so single values are uncertain.
# What was measured:
# Experiment in all cases: cell count relative to DMSO control; melanoma cells; higher = more viable cells
# Conditions in all cases: library dose: low library concentration; 72 h
# WM115 = system: WM115
# WM1716 = system: WM1716
# WM1745 = system: WM1745
# WM3526 = system: WM3526
# WM3619 = system: WM3619
# WM451Lu = system: WM451Lu
# 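Note: cell number obtained by counting DAPI-stained nuclei in high-throughput microscope images with image analysis software, screen run in 1,536-well plates.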
SMILES,cell count (WM115) [%],cell count (WM1716) [%],cell count (WM1745) [%],cell count (WM3526) [%],cell count (WM3619) [%],cell count (WM451Lu) [%]
"CC(=O)c1c(C)c2cnc(Nc3ccc(N4CCNCC4)cn3)nc2n(C2CCCC2)c1=O [palbociclib] + CN(NC(=O)CC(=O)NN(C)C(=S)c1ccccc1)C(=S)c1ccccc1 [STA4783] (first compound 0.04 µM, partner dose 0.006 µM)",77.2,52.1,21.5,60.4,14.8,89.3
"Nc1ncn([C@H]2C[C@H](O)[C@@H](CO)O2)c(=O)n1 [decitabine] + COc1ccc(Cl)c(Nc2nc3ccccc3nc2NS(=O)(=O)c2cccc(NC(=O)C(C)(C)N)c2)c1 [XL147] (first compound 0.1 µM, partner dose 0.8 µM)",89.9,71.9,82.8,125,137,102
"CO[C@H]1C[C@@H]2CC[C@@H](C)[C@@](O)(O2)C(=O)C(=O)N2CCCC[C@H]2C(=O)O[C@H]([C@H](C)C[C@@H]2CC[C@@H](OCCO)[C@H](OC)C2)CC(=O)[C@H](C)/C=C(\C)[C@@H](O)[C@@H](OC)C(=O)[C@H](C)C[C@H](C)/C=C/C=C/C=C/1C [everolimus] + Nc1ccn([C@@H]2O[C@H](CO)[C@@H](O)C2(F)F)c(=O)n1 [gemcitabine] (first compound 0.02 µM, partner dose 0.0004 µM)",83.6,77.3,72.7,70.4,58.1,81.2
"CO[C@H]1C[C@@H]2CC[C@@H](C)[C@@](O)(O2)C(=O)C(=O)N2CCCC[C@H]2C(=O)O[C@H]([C@H](C)C[C@@H]2CC[C@@H](OCCO)[C@H](OC)C2)CC(=O)[C@H](C)/C=C(\C)[C@@H](O)[C@@H](OC)C(=O)[C@H](C)C[C@H](C)/C=C/C=C/C=C/1C [everolimus] + CC1(C)NC(=O)N(c2ccc([N+](=O)[O-])c(C(F)(F)F)c2)C1=O [nilutamide] (first compound 0.02 µM, partner dose 1 µM)",83.5,83,91.4,58.6,64.5,88.7
"Nc1ccn([C@@H]2O[C@H](CO)[C@@H](O)C2(F)F)c(=O)n1 [gemcitabine] + CC(=O)c1c(C)c2cnc(Nc3ccc(N4CCNCC4)cn3)nc2n(C2CCCC2)c1=O [palbociclib] (first compound 0.0004 µM, partner dose 0.04 µM)",84.4,66.7,74,75.6,81,83.3
"CC(=O)O[C@@]12CO[C@@H]1C[C@H](O)[C@@]1(C)C(=O)[C@H](O)C3=C(C)[C@@H](OC(=O)[C@H](O)[C@@H](NC(=O)OC(C)(C)C)c4ccccc4)C[C@@](O)([C@@H](OC(=O)c4ccccc4)[C@H]21)C3(C)C [Docetaxel] + C[C@]1(c2nc3c(C(N)=O)cccc3[nH]2)CCCN1 [Veliparib] (first compound 0.0001 µM, partner dose 1.4 µM)",59.1,31.9,53.1,36.2,73.2,47
"Nc1nc(F)nc2c1ncn2[C@@H]1O[C@H](CO)[C@@H](O)[C@@H]1O [fludarabine] + O=C(CCCCCCC(=O)Nc1ccccc1)NO [vorinostat] (first compound 0.2 µM, partner dose 0.08 µM)",93.2,118,96.7,22.7,89.5,43.6
"Nc1ncn([C@H]2C[C@H](O)[C@@H](CO)O2)c(=O)n1 [decitabine] + C#Cc1cccc(Nc2ncnc3cc(OCCOC)c(OCCOC)cc23)c1 [erlotinib] (first compound 0.1 µM, partner dose 0.8 µM)",78.5,82,89,95.3,81.1,102
"Nc1ncn([C@H]2C[C@H](O)[C@@H](CO)O2)c(=O)n1 [decitabine] + COc1ccc(-c2ccc3c(N4CCOCC4)nc(N4C[C@@H](C)O[C@@H](C)C4)nc3n2)cc1CO [KU0063794] (first compound 0.1 µM, partner dose 0.02 µM)",92.3,77.6,83.8,92.4,90.4,76.1
"Nc1nc(F)nc2c1ncn2[C@@H]1O[C@H](CO)[C@@H](O)[C@@H]1O [fludarabine] + Cn1cncc1[C@@](N)(c1ccc(Cl)cc1)c1ccc2c(c1)c(-c1cccc(Cl)c1)cc(=O)n2C [tipifarnib] (first compound 0.2 µM, partner dose 0.01 µM)",84.7,63.1,90.3,32.3,73.8,44.5
"CC(=O)O[C@@]12CO[C@@H]1C[C@H](O)[C@@]1(C)C(=O)[C@H](O)C3=C(C)[C@@H](OC(=O)[C@H](O)[C@@H](NC(=O)OC(C)(C)C)c4ccccc4)C[C@@](O)([C@@H](OC(=O)c4ccccc4)[C@H]21)C3(C)C [Docetaxel] + COc1cc2c(Oc3ccc4[nH]c(C)cc4c3F)ncnc2cc1OCCCN1CCCC1 [cediranib] (first compound 0.0001 µM, partner dose 0.4 µM)",65.7,36,47.2,52.6,64.3,54.6
"CC(=O)c1c(C)c2cnc(Nc3ccc(N4CCNCC4)cn3)nc2n(C2CCCC2)c1=O [palbociclib] + O=c1cc(-c2cccc3c2Sc2ccccc2S3)oc(N2CCOCC2)c1 [KU55933] (first compound 0.04 µM, partner dose 1 µM)",84.7,66.1,76.8,55.5,68.8,56.7
"Nc1ncn([C@H]2C[C@H](O)[C@@H](CO)O2)c(=O)n1 [decitabine] + CCN(CC)CCCCNc1ncc2cc(-c3cc(OC)cc(OC)c3)c(NC(=O)NC(C)(C)C)nc2n1 [PD173074] (first compound 0.1 µM, partner dose 0.1 µM)",79.7,71,103,100,104,93.3
"Nc1ccn([C@@H]2O[C@H](CO)[C@@H](O)C2(F)F)c(=O)n1 [gemcitabine] + O=S(=O)(c1ccccc1)N(CC(F)(F)F)c1ccc(C(O)(C(F)(F)F)C(F)(F)F)cc1 [T0901317] (first compound 0.0004 µM, partner dose 1.4 µM)",81.6,85.7,60.9,76,70.3,63.7
"Nc1ncn([C@H]2C[C@H](O)[C@@H](CO)O2)c(=O)n1 [decitabine] + CO[C@@H]1[C@H](N(C)C(=O)c2ccccc2)C[C@H]2O[C@]1(C)n1c3ccccc3c3c4c(c5c6ccccc6n2c5c31)C(=O)NC4 [Midostaurin] (first compound 0.1 µM, partner dose 0.08 µM)",61.7,50.7,84,100,84.6,80.2
"Nc1ccn([C@@H]2O[C@H](CO)[C@@H](O)C2(F)F)c(=O)n1 [gemcitabine] + CN(C)S(=O)(=O)c1ccc2c(c1)/C(=C/c1cc3c([nH]1)CCCC3)C(=O)N2 [SU6656] (first compound 0.0004 µM, partner dose 0.4 µM)",85.1,134,73.8,96.1,86.2,113
"CO[C@H]1C[C@@H]2CC[C@@H](C)[C@@](O)(O2)C(=O)C(=O)N2CCCC[C@H]2C(=O)O[C@H]([C@H](C)C[C@@H]2CC[C@@H](OCCO)[C@H](OC)C2)CC(=O)[C@H](C)/C=C(\C)[C@@H](O)[C@@H](OC)C(=O)[C@H](C)C[C@H](C)/C=C/C=C/C=C/1C [everolimus] + C=CCNC1=C2C[C@@H](C)C[C@H](OC)[C@H](O)[C@@H](C)/C=C(\C)[C@H](OC(N)=O)[C@@H](OC)/C=C\C=C(/C)C(=O)NC(=CC1=O)C2=O [Tanespimycin] (first compound 0.02 µM, partner dose 0.002 µM)",67.9,78.1,70,58.4,78.1,74.1
"CC(=O)O[C@@]12CO[C@@H]1C[C@H](O)[C@@]1(C)C(=O)[C@H](O)C3=C(C)[C@@H](OC(=O)[C@H](O)[C@@H](NC(=O)OC(C)(C)C)c4ccccc4)C[C@@](O)([C@@H](OC(=O)c4ccccc4)[C@H]21)C3(C)C [Docetaxel] + CN(C)S(=O)(=O)c1ccc2c(c1)/C(=C/c1cc3c([nH]1)CCCC3)C(=O)N2 [SU6656] (first compound 0.0001 µM, partner dose 0.4 µM)",49.3,30.7,38.8,30.2,82.5,59.2
"Nc1ncn([C@H]2C[C@H](O)[C@@H](CO)O2)c(=O)n1 [decitabine] + O=C(CCCCCCC(=O)Nc1ccccc1)NO [vorinostat] (first compound 0.1 µM, partner dose 0.08 µM)",80,75.3,92,95.4,84.6,102
